Laboratory results taken from the supplement of paper PMC12217912.
The list shows a part of the results. Sequences were assembled here from the parent chain. Values near 0.05 are background.

B1: TEV protease; numbered along this chain (parent)
chain: MGESLFKGPRDYNPISSSICHLTNESDGHTTSLYGIGFGPFIITNKHLFRRNNGTLVVQSLHGVFKVKDTTTLQQHLVDGRDMIIIRMPKDFPPFPQKLKFREPQREERICLVTTNFQTKSMSSMVSDTSCTFPSGDGIFWKHWIQTKDGQCGSPLVSTRDGFIVGIHSASNFTNTNNYFTSVPKNFMELLTNQEAQQWVSGWRLNADSVLWGGHKVFMVKPEEPFQPVKEATQL

Variants of: B1
Assay: raw area under fraction-flipped curve 0-4 h after induction (AUC4h, not background-subtracted), DNA-recorder readout of cleavage of the substrate (dimensionless); higher = more cleavage of the substrate by the protease variant
Conditions: temperature: 34 °C; time window: 0-4 h after rhamnose induction
Experimental: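 In vivo DNA recorder in E. coli TOP10(DE3) ΔrhaA at 34 °C. Each TEVp single-site mutant (parent TEVp 0) is paired with a single-site variant of the 7-mer TEVs (canonical ENLYFQ|S). The substrate sits between flexible linkers in a Bxb1-sfGFP-TEVs-SsrA fusion, so cleavage stabilises Bxb1 and speeds flipping of a recombination array, read by NGS. The value is the raw area under the fraction-flipped curve over 0-4 h after rhamnose induction (AUC4h), with ≥20 reads per time point. It is not background-subtracted; inactive controls average about 0.047.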
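Further: Bxb1 expression induced with 0.2% (w/v) L-rhamnose at OD600 near 0.5, cultures sampled hourly, flipped fraction per protease–substrate barcode pair counted by paired-end Illumina sequencing.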

| Variant | area with substrate ENAYFQS | area with substrate ENCYFQS | area with substrate ENDYFQS | area with substrate ENEYFQS | area with substrate ENFYFQS | area with substrate ENGYFQS | area with substrate ENHYFQS | area with substrate ENMYFQS | area with substrate ENNYFQS | area with substrate ENPYFQS | area with substrate ENQYFQS | area with substrate ENSYFQS | area with substrate ENVYFQS | area with substrate ENWYFQS | area with substrate ENYYFQS | area with substrate ENIYFQS | area with substrate ENKYFQS | area with substrate ENTYFQS | area with substrate ENRYFQS |
| --- | --- | --- | --- | --- | --- | --- | --- | --- | --- | --- | --- | --- | --- | --- | --- | --- | --- | --- | --- |
| Q194T | 0.0536 | 0.0539 | 0.0552 | 0.059 | 0.065 | 0.0666 | 0.0687 | 0.0756 | 0.0541 | 0.0592 | 0.059 | 0.0937 | 0.0903 | 0.0598 | 0.0576 |  |  |  |  |
| T31S | 0.057 | 0.0473 | 0.0633 | 0.0518 | 0.0559 | 0.0606 | 0.053 |  | 0.0676 | 0.0587 | 0.0555 | 0.0571 | 0.0541 | 0.0095 | 0.0503 | 0.0706 | 0.0563 | 0.067 |  |
| T31D | 0.0531 | 0.0441 | 0.0693 | 0.0536 | 0.0476 |  | 0.0405 | 0.104 | 0.058 |  | 0.067 | 0.076 | 0.0798 | 0.0621 | 0.0669 | 0.108 | 0.0676 | 0.0716 |  |
| S18W | 0.0526 | 0.0603 | 0.053 | 0.0916 | 0.0617 |  |  |  | 0.0655 | 0.0445 |  | 0.0646 | 0.0644 |  |  | 0.0944 |  | 0.0584 | 0.0617 |
| Q105Y | 0.0591 |  |  | 0.061 | 0.0523 | 0.0603 | 0.0542 | 0.0645 |  | 0.0391 | 0.0511 | 0.0568 | 0.0711 | 0.0702 | 0.0624 | 0.0926 | 0.0727 | 0.0765 | 0.0653 |
| I42Q | 0.0418 | 0.0507 | 0.0284 | 0.0438 | 0.046 |  |  | 0.0414 | 0.0424 |  | 0.0432 | 0.0427 | 0.0436 | 0.0286 | 0.0476 | 0.0409 | 0.0494 |  |  |
| V220C | 0.0613 | 0.0824 | 0.055 | 0.0626 | 0.0679 |  | 0.0275 | 0.0809 |  | 0.0737 | 0.0529 | 0.0544 | 0.0779 | 0.0455 |  | 0.0942 |  | 0.0354 | 0.0603 |
| I36F | 0.0634 | 0.052 | 0.0581 | 0.0601 |  | 0.0673 | 0.0738 |  | 0.0623 |  | 0.0581 | 0.0499 | 0.0341 | 0.0344 |  |  | 0.0702 | 0.0629 | 0.0492 |
| S124I | 0.0642 | 0.0363 | 0.059 | 0.0726 | 0.0618 | 0.0351 | 0.0814 |  | 0.0523 |  | 0.0568 | 0.054 |  |  |  |  |  | 0.0761 | 0.0342 |
| M188E | 0.0605 | 0.0616 | 0.0591 | 0.0427 |  | 0.0657 |  |  |  |  |  | 0.08 |  |  |  | 0.127 |  | 0.0675 |  |
| S158I | 0.0529 |  |  | 0.0564 | 0.0621 |  |  |  |  |  | 0.0462 | 0.0542 | 0.066 | 0.0421 |  |  |  | 0.049 |  |
| P184M | 0.0588 | 0.0536 | 0.0521 | 0.0438 | 0.0519 | 0.0501 | 0.0584 | 0.0597 | 0.0503 | 0.0416 | 0.0534 | 0.0555 | 0.0559 |  | 0.0536 | 0.0791 | 0.0648 |  | 0.0608 |
| M122T | 0.0688 |  | 0.0602 | 0.0712 |  |  |  |  |  | 0.0559 | 0.0677 | 0.0538 |  | 0.0701 |  |  |  | 0.0704 | 0.0591 |
| L190H | 0.0532 |  | 0.0694 | 0.0568 | 0.057 | 0.0663 | 0.0581 | 0.0833 |  | 0.0638 | 0.0475 | 0.0613 | 0.0692 |  | 0.0274 | 0.11 | 0.0617 |  | 0.0491 |
| P225A | 0.0692 |  | 0.0714 | 0.055 | 0.0599 |  |  |  | 0.071 | 0.0643 | 0.059 | 0.0535 | 0.0804 | 0.0093 | 0.0512 |  | 0.0574 | 0.0602 |  |
| V183L | 0.0625 |  | 0.0552 |  |  |  |  |  |  | 0.0601 | 0.0715 | 0.0498 | 0.054 |  |  |  | 0.175 | 0.0498 | 0.0619 |
| W212Q | 0.0589 |  | 0.0676 | 0.0653 | 0.0698 | 0.0787 | 0.0543 | 0.0644 |  | 0.0765 | 0.0603 |  | 0.0614 | 0.0448 |  | 0.0941 | 0.0591 | 0.0546 | 0.0588 |
| G37V | 0.0524 | 0.0663 | 0.0651 | 0.0469 | 0.0546 | 0.0566 | 0.0535 | 0.075 | 0.0811 |  | 0.0581 | 0.0632 | 0.0747 | 0.0665 |  | 0.0773 |  | 0.0594 | 0.0514 |
| K230P | 0.0618 | 0.0689 | 0.0587 | 0.0564 | 0.0632 | 0.0555 | 0.0602 | 0.0658 | 0.0568 | 0.0511 | 0.0609 | 0.0544 | 0.0763 |  | 0.0508 |  |  | 0.0742 |  |
| Q118M | 0.0677 | 0.0738 |  |  |  |  |  |  |  |  | 0.0514 |  |  |  |  | 0.177 | 0.0962 |  |  |
| V165A | 0.0626 | 0.0627 | 0.0564 | 0.0606 | 0.0421 |  |  |  | 0.0566 | 0.0433 | 0.0451 | 0.0565 | 0.0486 |  | 0.049 |  |  | 0.0509 | 0.0623 |
| L56E | 0.0374 | 0.045 | 0.0147 | 0.0625 |  | 0.0529 |  |  | 0.0604 |  | 0.0444 | 0.0417 | 0.0512 | 0.031 | 0.0393 | 0.0423 | 0.0493 |  | 0.05 |
| P155V | 0.0492 | 0.0632 | 0.0531 | 0.0656 | 0.0596 | 0.0668 |  |  | 0.054 |  | 0.0606 | 0.0451 | 0.0944 |  | 0.0533 | 0.0876 | 0.0463 |  | 0.0633 |
| E231A | 0.0699 |  |  | 0.0603 | 0.0564 | 0.0703 | 0.0519 | 0.06 | 0.0591 | 0.0589 | 0.0611 | 0.0775 | 0.0901 |  |  | 0.111 |  | 0.0534 | 0.0546 |
| I43G | 0.0512 | 0.0609 | 0.0553 | 0.0515 | 0.0559 | 0.0445 | 0.0419 |  | 0.0553 | 0.0467 | 0.0446 |  |  |  | 0.0619 |  | 0.0431 | 0.0306 | 0.0409 |
| I43F | 0.0534 |  | 0.0664 | 0.0565 | 0.048 | 0.0933 | 0.0606 |  | 0.0596 |  | 0.0557 | 0.064 | 0.0655 |  | 0.0715 | 0.0823 | 0.0533 | 0.0539 | 0.0618 |
